Two substances from paper PMC7946322 can be followed below.

Amino acid sequences for entries named in this document (tags omitted).
UniProt P12520: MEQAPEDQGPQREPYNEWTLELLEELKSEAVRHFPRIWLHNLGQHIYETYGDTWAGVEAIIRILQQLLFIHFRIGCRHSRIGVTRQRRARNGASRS
UniProt Q9UKV0: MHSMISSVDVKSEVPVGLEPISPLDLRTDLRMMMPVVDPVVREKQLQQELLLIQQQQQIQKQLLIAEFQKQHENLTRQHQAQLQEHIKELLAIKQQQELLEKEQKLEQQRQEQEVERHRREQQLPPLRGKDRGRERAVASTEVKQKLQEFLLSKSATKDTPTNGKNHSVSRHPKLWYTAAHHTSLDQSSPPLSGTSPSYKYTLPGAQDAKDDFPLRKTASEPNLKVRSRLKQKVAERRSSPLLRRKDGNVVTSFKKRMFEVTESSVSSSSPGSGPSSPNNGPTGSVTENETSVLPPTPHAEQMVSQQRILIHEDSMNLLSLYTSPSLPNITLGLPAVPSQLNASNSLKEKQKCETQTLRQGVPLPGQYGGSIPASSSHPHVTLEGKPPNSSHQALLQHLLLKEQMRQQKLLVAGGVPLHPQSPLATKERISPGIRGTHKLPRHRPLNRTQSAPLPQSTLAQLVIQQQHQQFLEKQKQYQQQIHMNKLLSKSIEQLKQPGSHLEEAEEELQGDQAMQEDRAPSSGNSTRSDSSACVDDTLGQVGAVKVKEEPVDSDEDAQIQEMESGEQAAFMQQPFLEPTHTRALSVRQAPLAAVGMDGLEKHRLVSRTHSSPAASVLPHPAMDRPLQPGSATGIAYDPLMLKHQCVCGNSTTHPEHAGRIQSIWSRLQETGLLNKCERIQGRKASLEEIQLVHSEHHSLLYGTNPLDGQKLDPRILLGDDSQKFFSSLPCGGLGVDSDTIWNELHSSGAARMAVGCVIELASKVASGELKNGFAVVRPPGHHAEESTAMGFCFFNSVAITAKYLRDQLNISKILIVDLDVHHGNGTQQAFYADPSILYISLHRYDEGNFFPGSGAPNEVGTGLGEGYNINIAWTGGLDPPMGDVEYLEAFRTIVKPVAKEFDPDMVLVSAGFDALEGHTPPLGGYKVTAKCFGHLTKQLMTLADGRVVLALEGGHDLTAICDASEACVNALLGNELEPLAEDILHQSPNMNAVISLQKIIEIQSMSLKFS
UniProt Q13547: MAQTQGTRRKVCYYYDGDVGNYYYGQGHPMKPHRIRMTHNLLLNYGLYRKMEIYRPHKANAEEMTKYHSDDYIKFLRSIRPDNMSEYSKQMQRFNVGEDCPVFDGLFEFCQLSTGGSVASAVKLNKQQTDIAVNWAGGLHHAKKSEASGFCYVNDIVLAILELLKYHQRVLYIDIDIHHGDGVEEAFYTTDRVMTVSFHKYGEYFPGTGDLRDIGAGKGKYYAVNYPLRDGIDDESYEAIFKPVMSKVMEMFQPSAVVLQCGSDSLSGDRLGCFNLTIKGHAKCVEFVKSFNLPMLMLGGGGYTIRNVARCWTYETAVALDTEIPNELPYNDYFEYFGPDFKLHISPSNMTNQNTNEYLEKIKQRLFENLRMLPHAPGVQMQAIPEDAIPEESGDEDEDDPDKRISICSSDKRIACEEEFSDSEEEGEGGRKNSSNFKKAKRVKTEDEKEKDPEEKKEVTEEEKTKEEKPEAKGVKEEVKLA
UniProt O15379: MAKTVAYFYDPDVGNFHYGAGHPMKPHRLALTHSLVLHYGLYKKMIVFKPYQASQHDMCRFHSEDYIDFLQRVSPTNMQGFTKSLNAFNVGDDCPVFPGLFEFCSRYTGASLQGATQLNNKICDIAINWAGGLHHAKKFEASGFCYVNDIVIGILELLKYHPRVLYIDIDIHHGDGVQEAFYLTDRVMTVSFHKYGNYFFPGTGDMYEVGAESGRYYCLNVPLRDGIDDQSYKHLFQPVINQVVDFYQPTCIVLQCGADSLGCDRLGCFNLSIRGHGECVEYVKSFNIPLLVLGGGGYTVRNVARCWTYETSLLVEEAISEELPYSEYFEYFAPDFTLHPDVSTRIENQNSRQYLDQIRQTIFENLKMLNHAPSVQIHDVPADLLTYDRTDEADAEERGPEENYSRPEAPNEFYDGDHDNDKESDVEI
UniProt P56524: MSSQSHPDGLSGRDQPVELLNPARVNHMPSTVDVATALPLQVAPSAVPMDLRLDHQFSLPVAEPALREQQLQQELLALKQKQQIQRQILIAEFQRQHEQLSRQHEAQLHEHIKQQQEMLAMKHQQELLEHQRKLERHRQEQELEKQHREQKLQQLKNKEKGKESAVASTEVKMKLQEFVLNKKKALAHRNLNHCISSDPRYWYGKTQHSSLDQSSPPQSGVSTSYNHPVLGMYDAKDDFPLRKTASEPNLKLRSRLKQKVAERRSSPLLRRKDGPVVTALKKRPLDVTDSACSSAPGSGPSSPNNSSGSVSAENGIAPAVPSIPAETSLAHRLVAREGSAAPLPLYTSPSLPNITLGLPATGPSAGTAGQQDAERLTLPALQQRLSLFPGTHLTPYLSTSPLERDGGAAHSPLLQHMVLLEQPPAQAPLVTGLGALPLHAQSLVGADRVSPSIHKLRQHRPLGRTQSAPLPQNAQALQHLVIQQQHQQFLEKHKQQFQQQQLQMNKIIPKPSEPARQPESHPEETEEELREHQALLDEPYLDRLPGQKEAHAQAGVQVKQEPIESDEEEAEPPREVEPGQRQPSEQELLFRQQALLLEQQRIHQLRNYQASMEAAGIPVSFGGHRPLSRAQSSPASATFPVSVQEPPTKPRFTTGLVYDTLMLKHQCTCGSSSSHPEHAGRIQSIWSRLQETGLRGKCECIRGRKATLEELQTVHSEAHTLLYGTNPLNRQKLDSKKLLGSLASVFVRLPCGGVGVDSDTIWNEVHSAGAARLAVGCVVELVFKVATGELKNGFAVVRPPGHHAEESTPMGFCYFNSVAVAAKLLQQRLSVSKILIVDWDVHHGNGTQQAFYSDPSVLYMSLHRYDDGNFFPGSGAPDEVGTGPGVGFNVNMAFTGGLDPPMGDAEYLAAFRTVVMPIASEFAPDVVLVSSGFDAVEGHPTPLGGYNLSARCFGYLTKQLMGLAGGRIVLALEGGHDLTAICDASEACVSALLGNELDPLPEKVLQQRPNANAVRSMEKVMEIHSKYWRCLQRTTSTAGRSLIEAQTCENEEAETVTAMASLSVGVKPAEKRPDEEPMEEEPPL
UniProt Q9UBN7: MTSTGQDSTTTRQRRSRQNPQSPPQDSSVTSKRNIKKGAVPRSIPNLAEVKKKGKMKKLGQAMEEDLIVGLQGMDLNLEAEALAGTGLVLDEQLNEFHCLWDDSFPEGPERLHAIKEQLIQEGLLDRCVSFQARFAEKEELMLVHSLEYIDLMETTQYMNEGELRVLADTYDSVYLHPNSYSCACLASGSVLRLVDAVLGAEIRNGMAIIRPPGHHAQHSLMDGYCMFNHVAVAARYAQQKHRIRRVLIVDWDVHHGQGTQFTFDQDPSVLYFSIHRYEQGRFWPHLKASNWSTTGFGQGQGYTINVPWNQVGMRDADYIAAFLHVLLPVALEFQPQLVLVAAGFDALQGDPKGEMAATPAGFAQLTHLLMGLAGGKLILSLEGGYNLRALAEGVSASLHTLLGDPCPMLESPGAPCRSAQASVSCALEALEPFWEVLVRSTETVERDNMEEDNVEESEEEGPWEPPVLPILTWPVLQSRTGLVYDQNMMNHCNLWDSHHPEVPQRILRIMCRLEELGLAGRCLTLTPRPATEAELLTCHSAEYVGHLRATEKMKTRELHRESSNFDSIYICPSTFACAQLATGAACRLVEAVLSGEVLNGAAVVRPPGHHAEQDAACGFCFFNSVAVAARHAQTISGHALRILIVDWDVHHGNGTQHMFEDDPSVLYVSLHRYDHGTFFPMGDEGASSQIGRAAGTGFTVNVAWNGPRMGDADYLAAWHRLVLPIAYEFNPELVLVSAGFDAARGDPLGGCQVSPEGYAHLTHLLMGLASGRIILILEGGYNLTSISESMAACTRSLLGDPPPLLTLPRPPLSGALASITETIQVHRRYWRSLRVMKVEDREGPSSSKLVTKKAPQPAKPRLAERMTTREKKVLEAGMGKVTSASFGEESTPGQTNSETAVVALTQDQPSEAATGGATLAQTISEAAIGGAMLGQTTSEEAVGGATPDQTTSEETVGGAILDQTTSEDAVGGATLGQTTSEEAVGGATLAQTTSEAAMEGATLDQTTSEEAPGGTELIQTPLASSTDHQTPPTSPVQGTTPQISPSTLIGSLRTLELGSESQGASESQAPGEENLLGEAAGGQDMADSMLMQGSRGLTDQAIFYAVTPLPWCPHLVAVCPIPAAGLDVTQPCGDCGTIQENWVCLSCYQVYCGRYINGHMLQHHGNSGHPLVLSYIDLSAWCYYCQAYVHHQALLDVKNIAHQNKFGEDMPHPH
UniProt P08047: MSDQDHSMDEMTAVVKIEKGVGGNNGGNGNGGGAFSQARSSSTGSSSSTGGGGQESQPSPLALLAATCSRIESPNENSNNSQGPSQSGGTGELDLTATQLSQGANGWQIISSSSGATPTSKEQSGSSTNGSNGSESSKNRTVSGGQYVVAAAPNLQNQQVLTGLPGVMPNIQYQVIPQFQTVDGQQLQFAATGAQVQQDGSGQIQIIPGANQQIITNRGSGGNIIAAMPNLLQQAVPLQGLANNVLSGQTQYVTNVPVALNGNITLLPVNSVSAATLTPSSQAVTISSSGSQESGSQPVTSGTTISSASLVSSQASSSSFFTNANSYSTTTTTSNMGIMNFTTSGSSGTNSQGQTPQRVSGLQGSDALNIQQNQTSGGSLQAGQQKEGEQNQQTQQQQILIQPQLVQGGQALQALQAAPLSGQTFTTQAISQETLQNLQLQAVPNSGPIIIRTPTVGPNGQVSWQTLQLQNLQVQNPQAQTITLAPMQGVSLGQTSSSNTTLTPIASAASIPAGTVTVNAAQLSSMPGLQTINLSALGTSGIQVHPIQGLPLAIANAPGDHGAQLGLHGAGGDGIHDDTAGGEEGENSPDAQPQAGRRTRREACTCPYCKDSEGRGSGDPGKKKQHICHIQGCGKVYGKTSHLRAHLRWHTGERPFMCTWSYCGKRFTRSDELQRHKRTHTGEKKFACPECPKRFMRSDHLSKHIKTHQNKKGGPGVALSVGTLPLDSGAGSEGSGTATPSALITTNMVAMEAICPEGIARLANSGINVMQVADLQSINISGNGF

Test [1] has as its target T1, Flag-tagged ZASC1, full length, wild type (human) (UniProt Q9UID6).
T1 sequence: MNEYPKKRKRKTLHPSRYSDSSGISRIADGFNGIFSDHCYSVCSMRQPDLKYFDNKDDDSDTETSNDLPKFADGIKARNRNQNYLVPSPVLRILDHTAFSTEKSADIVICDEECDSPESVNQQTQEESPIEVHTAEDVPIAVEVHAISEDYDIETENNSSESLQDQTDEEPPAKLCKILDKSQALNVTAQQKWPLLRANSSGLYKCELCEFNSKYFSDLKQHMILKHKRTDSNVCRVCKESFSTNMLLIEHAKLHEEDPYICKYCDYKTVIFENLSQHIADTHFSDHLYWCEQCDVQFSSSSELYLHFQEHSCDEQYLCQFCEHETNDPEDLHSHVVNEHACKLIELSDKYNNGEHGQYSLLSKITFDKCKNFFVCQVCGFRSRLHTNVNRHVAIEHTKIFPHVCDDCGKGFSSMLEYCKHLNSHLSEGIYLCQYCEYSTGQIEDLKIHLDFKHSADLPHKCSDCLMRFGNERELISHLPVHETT
Kind of test: co-IP; HEK293 cells co-transfected; immunoprecipitation of the Flag-tagged protein with anti-Flag beads, blot for the Myc- or HA-tagged partner (Fig 1C, S1, S3, Fig 7A, 7D); TBSN buffer; micrococcal nuclease in the immunoprecipitation.

Test [2] deals with Flag-tagged HIV-1 Vpr (HIV-1 (NL43)) (UniProt P12520). Kind of test: co-IP.
The target of a further test is T2, V5-tagged HDAC10 (UniProt Q969S8).
T2 sequence: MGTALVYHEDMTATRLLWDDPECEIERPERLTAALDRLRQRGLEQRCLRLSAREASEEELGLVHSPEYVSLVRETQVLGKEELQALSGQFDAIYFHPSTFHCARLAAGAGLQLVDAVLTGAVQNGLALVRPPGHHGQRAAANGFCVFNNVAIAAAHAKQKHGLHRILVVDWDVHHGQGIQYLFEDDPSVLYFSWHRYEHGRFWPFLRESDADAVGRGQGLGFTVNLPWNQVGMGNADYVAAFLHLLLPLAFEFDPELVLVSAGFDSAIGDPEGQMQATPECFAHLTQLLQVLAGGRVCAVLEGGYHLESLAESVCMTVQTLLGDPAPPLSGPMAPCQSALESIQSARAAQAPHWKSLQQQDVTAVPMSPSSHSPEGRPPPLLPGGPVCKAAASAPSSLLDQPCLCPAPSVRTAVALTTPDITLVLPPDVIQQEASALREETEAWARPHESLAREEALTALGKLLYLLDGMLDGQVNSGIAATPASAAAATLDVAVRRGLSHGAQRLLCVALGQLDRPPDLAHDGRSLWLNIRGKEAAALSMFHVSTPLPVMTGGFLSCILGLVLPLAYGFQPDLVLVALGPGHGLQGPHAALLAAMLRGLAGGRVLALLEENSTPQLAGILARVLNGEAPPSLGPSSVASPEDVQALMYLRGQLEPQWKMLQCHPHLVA
Briefly: co-IP; HEK293 cells co-transfected with V5-tagged HDAC10 and Myc-ZBTB2 (Fig 7B); the antibody that precipitated V5-HDAC10 is not told.

Another test concerns the target FLAG-tagged HDAC9 (UniProt Q9UKV0). Kind of test: co-IP; HEK293 cells co-transfected; immunoprecipitation of the Flag-tagged protein with anti-Flag beads, blot for the Myc- or HA-tagged partner (Fig 1C, S1, S3, Fig 7A, 7D); TBSN buffer; micrococcal nuclease in the immunoprecipitation.
Another test deals with Flag-tagged HDAC1 (UniProt Q13547). The description is as above.
The target in the next test is Flag-tagged HDAC3 (UniProt O15379). Described as above.
The target in another test is Flag-tagged HDAC4 (UniProt P56524). The test is described as above.
A further test has as its target Flag-tagged HDAC6 (UniProt Q9UBN7). The description is as above.
In another test the target is T3, Flag-tagged HDAC7 (UniProt Q8WUI4).
T3 sequence: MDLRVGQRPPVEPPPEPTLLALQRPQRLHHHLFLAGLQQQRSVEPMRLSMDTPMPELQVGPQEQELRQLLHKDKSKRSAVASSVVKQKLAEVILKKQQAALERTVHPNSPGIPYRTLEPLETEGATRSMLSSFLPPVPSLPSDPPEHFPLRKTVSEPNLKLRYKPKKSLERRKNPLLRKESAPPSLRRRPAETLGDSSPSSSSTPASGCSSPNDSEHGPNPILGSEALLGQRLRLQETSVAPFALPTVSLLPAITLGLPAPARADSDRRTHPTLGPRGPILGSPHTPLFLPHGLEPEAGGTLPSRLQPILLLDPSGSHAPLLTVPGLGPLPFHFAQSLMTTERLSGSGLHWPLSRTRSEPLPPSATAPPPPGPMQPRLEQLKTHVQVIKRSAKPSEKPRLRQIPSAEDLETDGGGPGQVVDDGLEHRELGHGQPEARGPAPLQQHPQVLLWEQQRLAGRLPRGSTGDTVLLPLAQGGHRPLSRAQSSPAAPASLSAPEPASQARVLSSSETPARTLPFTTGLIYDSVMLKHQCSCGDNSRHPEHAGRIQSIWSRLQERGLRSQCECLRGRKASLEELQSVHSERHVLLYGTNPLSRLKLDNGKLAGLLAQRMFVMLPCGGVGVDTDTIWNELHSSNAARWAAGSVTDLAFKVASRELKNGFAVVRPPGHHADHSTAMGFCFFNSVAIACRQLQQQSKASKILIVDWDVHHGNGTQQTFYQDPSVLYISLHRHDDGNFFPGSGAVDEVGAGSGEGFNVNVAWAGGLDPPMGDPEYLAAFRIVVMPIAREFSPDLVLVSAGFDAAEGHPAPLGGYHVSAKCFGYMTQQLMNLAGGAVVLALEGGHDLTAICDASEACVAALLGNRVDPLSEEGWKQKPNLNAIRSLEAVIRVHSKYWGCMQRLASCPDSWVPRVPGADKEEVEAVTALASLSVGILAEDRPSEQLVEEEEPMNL
The test is described as above.

These are yes or no findings as the source states them, for the method shown. In cells and extracts the contact can be indirect. Some binding calls cover weakened binding; strength is not graded here. For part of these data: Tags and fused reporters may be left off the sequences shown.

For the substance Myc-Sp1 (from UniProt P08047 1-785), the binding entry in test [1] is recorded as “no binding”.

As to “Myc-tagged ZBTB2, full length, wild type (from UniProt Q8N680 1-514)”, the binding result in test [2] is “no binding”; with V5-tagged HDAC10 it was “binds weakly”; in the test with FLAG-tagged HDAC9 it was “binds”; in the test with Flag-tagged HDAC1, “binds”; with Flag-tagged HDAC3 it was “binds weakly”; with Flag-tagged HDAC4 it was “binds”. In addition, the binding result is given as “binds weakly” with Flag-tagged HDAC6 and “binds” with Flag-tagged HDAC7.
